# Source: paper PMC6919601, “Identification of Plasmodium dipeptidyl aminopeptidase allosteric inhibitors by high throughput screening” (PLoS ONE, 2019)
# About 230 (0.21%) of roughly 110,000 compounds showed an effect of 50% or more. The list shows a part of the results.
# Biological target: DPAP1 (Plasmodium falciparum, UniProt Q8IIJ9)
# Test: primary screen, percent inhibition; read by cleavage of a fluorogenic dipeptide substrate; higher = more effect of the substance
# Design: species or system P. falciparum D10 trophozoite lysates; single well
# 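Also: 30 min substrate incubation versus DMSO and 10 µM JCP410 controls.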
# Sequence of DPAP1 (Q8IIJ9 whole entry, looked up): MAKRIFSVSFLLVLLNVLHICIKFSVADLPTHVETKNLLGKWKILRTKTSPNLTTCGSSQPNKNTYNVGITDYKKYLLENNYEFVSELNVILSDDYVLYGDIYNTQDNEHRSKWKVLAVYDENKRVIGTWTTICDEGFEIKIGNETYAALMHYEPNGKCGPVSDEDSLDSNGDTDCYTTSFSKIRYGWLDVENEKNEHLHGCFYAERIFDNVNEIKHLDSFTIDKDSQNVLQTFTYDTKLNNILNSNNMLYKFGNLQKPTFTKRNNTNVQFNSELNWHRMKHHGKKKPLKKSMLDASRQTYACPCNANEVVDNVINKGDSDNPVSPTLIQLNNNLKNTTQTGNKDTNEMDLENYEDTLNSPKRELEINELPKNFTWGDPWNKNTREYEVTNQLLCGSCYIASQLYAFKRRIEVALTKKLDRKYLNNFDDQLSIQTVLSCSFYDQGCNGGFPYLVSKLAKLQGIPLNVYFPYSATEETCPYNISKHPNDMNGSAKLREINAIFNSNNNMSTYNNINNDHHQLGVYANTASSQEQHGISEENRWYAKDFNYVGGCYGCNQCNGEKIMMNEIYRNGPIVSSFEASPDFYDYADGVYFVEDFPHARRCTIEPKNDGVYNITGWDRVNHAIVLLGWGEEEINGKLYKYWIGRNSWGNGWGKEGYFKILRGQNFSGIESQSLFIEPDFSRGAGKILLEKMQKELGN
row,SMILES,% Inhibition @ 10 uM [%]
1,Cc1cc(C)c2c(CC(=O)N3CCN(C)CC3)coc2c1,1
2,Cc1nnc(N2CCCC(C(=O)NC3CC3)C2)c2nn(-c3ccc(Cl)cc3)c(C)c12 (stereo not shown),11.8
3,CCc1cc2c(C)cc(=O)oc2cc1OCc1ccccc1,10.5
4,CCCC1=C(C(=O)OCC)C(c2ccccc2Cl)NC(=O)N1 (stereo not shown),0.345
5,CN(Cc1ccccc1)C(=O)C1CCCN(c2ncnc3c2nc2n3CCCCC2)C1 (stereo not shown),0.244
6,O=C(c1cnn2c1NC(c1ccccc1)CC2C(F)(F)F)N1CCCCC1 (stereo not shown),-1.06
7,CCC1=NN(c2ccccc2)C(=O)C(CC(=O)Nc2ccccc2)c2cc(OC)c(OC)cc21 (stereo not shown),3.31
8,COc1ccc(OCCSc2nc(O)c3ccccc3n2)cc1,-4.39
9,CC(C)OCCCNC(=O)c1ccc2nc(N3CCCCC3)sc2c1,2.65
10,O=C(NCc1ccccn1)C1CCN(c2ncnc3c2sc2cccc(F)c23)CC1,-0.637
11,CCCCOc1ccc(S(=O)(=O)NCc2csc(C)n2)cc1,-4.24
12,CC1CCN(C(=O)c2cc3n(n2)C(C(F)(F)F)CC(c2ccccc2)N3)C(C)C1 (stereo not shown),2.79
13,CCN(CCCNC(=O)Cn1cnc2onc(-c3ccc(F)cc3)c2c1=O)Cc1ccccc1,-4.74
14,COc1ccc(-c2ccc3c(N)c(C(=O)Nc4ccc(C(C)=O)cc4)sc3n2)cc1,1.27
15,Cc1ccsc1C(=O)NC(C)c1ccc2c(c1)OCO2 (stereo not shown),-2.85
16,CC(C)NC(=O)CCCn1sc2ccccc2c1=O,-3.53
17,Cc1ccc(Cl)cc1NC(=O)CC1NC2CCCCC2NC1=O (stereo not shown),3.8
18,c1ccc(CCN2CCC(NC34CC5CC(CC(C5)C3)C4)CC2)cc1,2.1
19,O=C1NC(Nc2ccccc2C(=O)O)=N/C1=C\c1ccccc1,2.4
20,CC1CC(C)CN(CCCNC(=O)C2CCN(C(=O)c3cc4sccc4n3C)CC2)C1 (stereo not shown),0.137
21,CC1(C)CC(O)=C/C(=N/CCCN2CCOCC2)C1,-4.21
22,Cc1nc2nc(NC(=O)c3cccs3)nn2c(C)c1Cl,-1.31
23,COc1cc(S(=O)(=O)N2CCN(c3ccc(F)cc3)CC2)c(C)cc1C,-5.4
24,COC(=O)C1=CN(Cc2cccs2)C=C(C(=O)OC)C1c1ccc(Cl)cc1,-2.87
25,CC1=C(c2ccccc2)SC2=NCCCN21,4.41
26,O=C(Cn1c(=O)n2ncnc2c2c3c(sc21)CCCC3)c1ccccc1,-1.69
27,Cc1ccc(-n2ccc3nc4c(c(N)c3c2=O)CCC4)cc1,4.04
28,CC(C)(CCC(=O)Nc1ccc(Cl)cc1Cl)C(=O)Nc1ccc(Cl)cc1Cl,-0.0372
